Reference: PMC6919601, “Identification of Plasmodium dipeptidyl aminopeptidase allosteric inhibitors by high throughput screening” (PLoS ONE, 2019)
Hit rate of the full screen: of about 110,000 compounds, about 230 (0.21%) showed an effect of 50% or more. The list shows a part of the results.

Biological target: DPAP1 (Plasmodium falciparum, UniProt Q8IIJ9)
Experiment: primary screen, percent inhibition; read by cleavage of a fluorogenic dipeptide substrate; higher = more effect of the substance
Parameters: species or system P. falciparum D10 trophozoite lysates; single well
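Further: 30 min substrate incubation versus DMSO and 10 µM JCP410 controls.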

Sequence of DPAP1 (Q8IIJ9 whole entry, looked up): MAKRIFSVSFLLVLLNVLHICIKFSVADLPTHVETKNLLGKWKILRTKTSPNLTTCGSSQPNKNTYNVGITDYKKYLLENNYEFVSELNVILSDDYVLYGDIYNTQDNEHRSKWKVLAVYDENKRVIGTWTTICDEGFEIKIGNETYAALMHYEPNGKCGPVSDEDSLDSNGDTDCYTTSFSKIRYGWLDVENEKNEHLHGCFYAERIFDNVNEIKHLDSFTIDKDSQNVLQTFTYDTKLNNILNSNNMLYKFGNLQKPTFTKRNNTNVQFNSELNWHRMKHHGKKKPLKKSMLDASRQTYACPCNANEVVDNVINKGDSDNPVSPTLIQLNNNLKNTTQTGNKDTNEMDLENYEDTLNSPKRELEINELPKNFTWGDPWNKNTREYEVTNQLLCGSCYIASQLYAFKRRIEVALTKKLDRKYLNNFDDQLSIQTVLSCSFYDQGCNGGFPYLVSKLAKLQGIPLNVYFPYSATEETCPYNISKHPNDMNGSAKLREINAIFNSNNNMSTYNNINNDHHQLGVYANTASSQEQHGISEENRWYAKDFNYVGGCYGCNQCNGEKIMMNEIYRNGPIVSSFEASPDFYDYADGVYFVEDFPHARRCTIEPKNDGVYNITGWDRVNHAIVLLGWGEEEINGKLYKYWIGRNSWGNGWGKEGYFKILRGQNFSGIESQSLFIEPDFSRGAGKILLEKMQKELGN

| SMILES | % Inhibition @ 10 uM [%] |
| --- | --- |
| COc1cccc(C2=CC(c3ccc(F)c(Br)c3)n3ncnc3N2)c1 (stereo not shown) | 0.0842 |
| CC1CN(Cc2ccc(OC(F)(F)F)cc2)CC(C)O1 (stereo not shown) | -1.63 |
| CC(=O)C1=C(C)NC(=O)NC1c1cccc(O)c1 (stereo not shown) | -5.38 |
| O=C(c1ccc(F)cc1)N1CCN(Cc2ccc3ccccc3c2)CC1 | -7.09 |
| Cc1ccnc(NC(=O)C2CCC(CNc3c(N4CCC(C)CC4)c(=O)c3=O)CC2)c1 (stereo not shown) | -5.81 |
| COc1ccc(OC)c(C2CCN(S(=O)(=O)c3c[nH]cn3)C2)c1 (stereo not shown) | -1.59 |
| O=C(N/C(=C\c1ccc(Cl)cc1)C(=O)N1CCCCC1)c1ccccc1 | 8.6 |
| O=C(O)/C=C/c1ccc(N2Cc3ccccc3C2)cc1 | 1.84 |
| COc1cc(O)ccc1C1CC(=O)Nc2c1c(C)nn2-c1nc2ccccc2s1 (stereo not shown) | -6.85 |
| CC1=C(C(=O)Nc2cccc(F)c2)C(c2cccc(C(F)(F)F)c2)NC(S)=N1 (stereo not shown) | 1.54 |
| COc1ccc(CC(=O)N2CCC3(CC2)N=C(c2ccc(Cl)cc2)C(=O)N3)cc1 | 10.7 |
| CCOC(=O)C1=C(CC)OC(N)=C(C#N)C1c1ccc(Cl)cc1Cl (stereo not shown) | 1.48 |
| Cc1cccc(C(=O)NC(C)c2ccc3c(c2)OCO3)c1 (stereo not shown) | -1.04 |
| CCC(=O)c1ccc(OCC(O)Cn2nnc3ccccc32)cc1 (stereo not shown) | 3.66 |
| C/C=C/Cn1c(NCc2ccccc2)nc2c1c(=O)[nH]c(=O)n2C | 4.31 |
| Cc1cccc(-n2c(CNC(=O)c3cccs3)nnc2SCC(=O)Nc2nccs2)c1 | 1.91 |
| O/N=C1\CCCc2c1[nH]c1ccc(OCc3ccccc3)cc21 | -7.88 |
| CCCc1nc(O)cc2cc(OC)c(OC)cc12 | 1.72 |
| Oc1c(C2=NNC(c3ccc(Cl)cc3Cl)C2)ccc2ccccc12 (stereo not shown) | 0.484 |
| CCN(CC)CCNC(=O)Cn1ncc2c3ccccc3n(Cc3ccccc3)c2c1=O | -1.58 |
| CC1(C)CC(=O)C(/C=N/c2ccc(Cl)cn2)=C(O)C1 | -3.74 |
| CC1(C)OC(C)(C)C2=C1C=Nc1ccccc1N2 | -9.75 |

| SMILES | % Inhibition @ 10 uM [%] |
| --- | --- |
| CN(Cc1ccccc1)c1ccc2nnc(-c3ccccc3)n2n1 | -3.08 |
| CCOC(=O)N1CCC(NC(=O)Cn2c3c(c(-c4ccccc4Cl)cc2=O)CCC3)CC1 | -2.72 |
| CCOc1ccc(-c2nnc(-c3ccco3)o2)cc1 | 1.84 |
| CCOc1ccc(-c2csc(/C(C#N)=C/c3ccc(Br)o3)n2)cc1 | 5.77 |
| Cc1ccc2c(c1)c1c(n2CC(O)Cn2nc(C)cc2C)CCCC1 (stereo not shown) | 0.777 |
| O=C(NN=C1CCCC1)C(=O)Nc1ccc(F)cc1 | -4.41 |
| Cc1cccc(C(=O)Nc2ccc(F)cc2F)c1 | 2.13 |
| COc1ccc(C)cc1NC(=O)CN(c1ccccc1Cl)S(C)(=O)=O | -3.92 |
| CC(C)C[C@H](NC(=O)c1cc2cc(OCCN3CCOCC3)ccc2o1)C(=O)NC1COCC1=O (stereo partly shown) | -8.26 |
| CCOc1ccc2[nH]c(SCC(=O)Nc3ccccc3)nc2c1 | -4.75 |
| O=C(NCC(=O)N1CCCCCC1)c1cccs1 | -1.34 |
| CCOC(=O)c1cc(S(=O)(=O)NCc2ccc(C)cc2)cn1C | -1.06 |
| Cn1c(CN2CCN(Cc3ccccc3)CC2)nc(=O)c2ccccc21 | -6.52 |
| OCCOCCN1CCN(CC(c2ccccc2)c2ccccc2)CC1 | -4.75 |
| O=[N+]([O-])c1ccc(CSc2ncnc3c2ncn3C2OC(CO)C(O)C2O)cc1 (stereo not shown) | 1.64 |
| COc1ccccc1NC(=O)C1=C(C)N=C2CCCC(O)=C2C1c1ccccc1Br (stereo not shown) | -0.99 |
| Cc1cccc(Cc2c(C)nc(O)c(C#N)c2C)c1 | -3.94 |
| O=C(CN(c1ccccc1Cl)S(=O)(=O)c1ccccc1)NC1CCCCC1 | -0.69 |
| CCOc1cccc(NC(=O)C2CC(=O)N(c3ccccc3)C2)c1 (stereo not shown) | -2.83 |
| Cc1nc2ccccc2c2c1C(=O)N(CCO)C2=O | 2.64 |
| Cc1nc2ccc(S(=O)(=O)NCC(=O)NC3CCCCCC3)cc2s1 | 0.747 |
| O=C(O)c1ccc(CN2CCN(c3ccccn3)CC2)cc1 | -4.61 |

| SMILES | % Inhibition @ 10 uM [%] |
| --- | --- |
| O=C(CC12CC3CC(CC(C3)C1)C2)Nc1cccnc1Cl | -0.171 |
| Cc1cccc2c(CCN)c[nH]c12 | -3.58 |
| CCOc1ccc(CCNC(=O)c2nn(C)c3c2CSc2ccccc2-3)cc1OCC | 3.3 |
| COc1ccc(-c2cc(C(F)(F)F)nc(SCC(=O)Nc3cccnc3Cl)n2)cc1 | 2.46 |
| O=C(CCNc1ccc2ccccc2c1)c1cccc([N+](=O)[O-])c1 | -3.52 |
| N#CC1=C(N)Nc2c(oc(CO)cc2=O)C1c1conc1-c1ccc(F)cc1 (stereo not shown) | -1.68 |
| Clc1ccc2nc(NC3CCCCCCC3)c3nncn3c2c1 | 0.942 |
| Cc1ccc(O)c(-c2cc(C(F)(F)F)[nH]n2)c1 | 22.7 |
| Cc1cc2n(n1)CCCN2C(=O)CCC(=O)N1CCN(C(=O)c2ccco2)CC1 | -3.94 |
| Cc1sc2ncnc(NCc3ccccc3)c2c1C | -2.18 |
| CC(NC(=O)c1cc(-c2ccc3c(c2)OCO3)on1)c1ccccc1 (stereo not shown) | -1.84 |
| O=C1C(Cl)=C(NCCc2ccccc2)C(=O)N1c1ccccc1 | -5.48 |
| C=CCn1c(SCC(=O)NCc2cccnc2)nc2sc3c(c2c1=O)CCC3 | -1.64 |
| Cn1cc(Cl)c(C(=O)N2CCN(c3ncccn3)CC2)n1 | 2.7 |
| CC(=O)Nc1ccc(/C=C2\SC(=O)N(Cc3ccc(C)cc3)C2=O)cc1 | -1.51 |
| COc1cccc(C(=O)Nc2c(C)cc(C)cc2C)c1 | -5.82 |
| COc1ccc(NC(=O)C2=C(C)NC(=O)NC2c2cccc(Br)c2)cc1 (stereo not shown) | 0.993 |
| CCCCN1CC(C(=O)NCCc2ccccc2)CC1=O (stereo not shown) | -0.0542 |
| Cc1nnc(N2CCCC(C(=O)N3CCOCC3)C2)c2nn(-c3ccccc3)c(C)c12 (stereo not shown) | -2.5 |
| CCC1NC2(C(=O)N(C)c3ccccc32)C2C(=O)N(Cc3ccccc3)C(=O)C12 (stereo not shown) | -2.09 |
